# Whole data set: some 4,500 sequences, median “median log2 fold change of GCK-ALFA target abundance (FLAG IP / Myc IP barcode read proportion)” near 0.078, cut for the lowest 2% near -0.6. The list shows a part of the results.
# B1: GBRAP_128_3603 (protein)
# chain: AVEEARERAREAIEKIKESDDEEAKKIAKELAEWLLTKSLEEVKAAMEEIERRAPELSEEKLLILQDALHEAAKKASPEKQEVLLAAVGELGAEAYEKTE
# B2: GBRAP_52_5850 (protein)
# chain: MEEEAKKLAEELVKLKKEGKEEELEKKVKEIVETKSEEEIVEILKELAKIAKEVTPEEAEAIFEVAELLAREAEKAGFNEDELSYELALVGAAVYEAEQR
# B3: GBRAP_139_3714 (protein)
# chain: SHREELIEEARRIVREHRDDLEKLAEELAKLIAEADDENALAIARAAAEEMKDWSWEKWEKFIELLEKELKKLGFSEDDVLAIVGEMEAVYAKHELAKLE
# B4: GBRAP_11_2897 (protein)
# chain: EKEKLKEAAKLAEEAAALLEKLIKEGPDNEELRKKAEKALKELLELAKKYLDESDVELAENALELFKKAQEDPENAEEYLKQALAYVRVLAGQVLLRIEE
# B5: GBRAP_11_2621 (protein)
# chain: KKEILKKAAKLAEEAAKLAKKLLEEGVDNEELLEKLKKKLEELAKLTKEHFEPSEQKDVEIAKELFEESLKDKENAEKYMEELLASLRVLEGNYLLKIEE
# B6: GBRAP_184_5047 (protein)
# chain: KTFEETIRFSTLAELEAQLAALAERLKDFKGDLILLAEAEEFTPEMVETAVAALAAIKAAGYVTSVTLGLDGKMTEEVRDLAIELADRAGIKVVLALEEE
# B7: GBRAP_160_4736 (protein)
# chain: SEEIKKLVEEGKKELLEAVELSEDLSPEERAALFRGTAGEVLMDFIEDERMTDEMEDAAAEILDELVERLEAARDASLEEKKKIVEEMMERLEKELLKIA
# B8: GBRAP_52_5989 (protein)
# chain: MEEKAKKLAEELVKLMLEGKREEAEKKIKELVATLSEEELELIMKELAEMAKTADEEEIDAIVEIALMLGDAALEAGFDEAKVDDQIARVAAAAVEALKK
# B9: GBRAP_139_3760 (protein)
# chain: SKKEELEKLANETVEAAKNGDIEKIEKIAKEISKLSEEEIKEYIKILSEKSLSLTLEEIETIEEIITKTLLELRNNEDLATYAEGEFNGTLALVAYREEL
# B10: GBRAP_184_5149 (protein)
# chain: MTLRRSIDAKTVEEAVKQAEKVFKEAKAQGADLVLHIFLEGFSVEEVEELAKKVKELAKKYGLKNATIILHVDANEEEADKIIKAADEAGVRAVVALLEP
# B11: GBRAP_52_5971 (protein)
# chain: MLERARELVREALELMEAGREEEAERLMEEVAETWDDEELRVLVEAVAELAAELDEERAELLLEMAIRAEDVLLRLGRDEALANDLVAAAARAAVAKRQA
# B12: GBRAP_11_2883 (protein)
# chain: KKEKLKELAELAQQLADTTDALLAAGTDDAALRAQLTALLDKLAELTAKYADEASKKLVEIAKEEWAKAQADPANAAAHLQNLRATARVLAGQYLLELEE
# B13: GBRAP_11_2718 (protein)
# chain: RKEKLEELAKEAEELAKEVEKLIEEGPKPEELKELAKRVEELARKAKEAGVDEDIVETLEIAAEELKKAIEDPETVVEHLERAAAALRVAAGDLLLEAEE
# B14: GBRAP_160_4061 (protein)
# chain: SESLERLLKDVEEARERILEVLREEGAEAAIVMAAGEYGAVIMEAAEDENASDELVDDLAEVRDRLVAELEANRDASREELERIIERHAEEAKEIIKKHF
# B15: GBRAP_184_5107 (protein)
# chain: KTLVVTVEAATLEEARAQLRAAVAEAAAAGADLVVLLSLEGFSGEELVALVREFGEAARAAGVPRVTLGITNDLDEETVDRLVAVADELGVALVLAIPDK
# B16: GBRAP_160_4588 (protein)
# chain: MESLEKMKEIVREELEEAKEMIVGETAEQRATIVLGAGGEIVMELSENPEASDELEDEVLKIADEAADTILANPNITEEEFNALLDEMEKKMIEAIEKHL
# B17: GBRAP_184_5320 (protein)
# chain: KVIHKVIEVETEEEAIEKLEEVKKEAKETGEKYLVVVEIKNATEKKIEAIAEKIKEMKEEGLPIEVIVELLDEVDEELTDFAVEKMEEAGAKVVISLKDE
# B18: GBRAP_128_3386 (protein)
# chain: SQEEKLKEAKELIDKIVEADVETARVLTEELMELLKTLSLEDQEKVIEYFKSKLPELTAEKLDVVADVLREKRPEFDPESQNLIADAEVEALNAAEEKEE
# B19: GBRAP_9_7152 (protein)
# chain: MEELLEKVEEVIEDAFEEIKLVVPEEVKPLVDELREKAKERFEELRKDPNVTEEQIVEEAKKILEELEEELSKKVSPEIKKIVRAIVDTAKLEIEELREE
# Biological target: GABARAP, O95166
# Experiment: median log2 fold change of GCK-ALFA target abundance (FLAG IP / Myc IP barcode read proportion) (log2 ratio); each designed protein is fused to an ALFA-tag nanobody in HEK293 cells to bring the named protein to FLAG-tagged glucokinase (GCK); Myc marks an untargeted standard; higher = target protein stabilised (more abundant)
# Conditions: target protein: 3xFLAG-MCP-GCK-ALFA reporter; HEK293 landing pad (RPLP)
# Method in brief: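 The readout is target abundance, the per-binder median log2 ratio of FLAG to Myc barcode read proportions. It came from HEK293 landing-pad cells carrying a recombined ALFA-nanobody-fused binder library, induced with 2 μg mL^−1 doxycycline and transfected with a plasmid for a FLAG-tagged target and a Myc-tagged standard. After 48 h, lysates were immunoprecipitated with anti-FLAG and anti-Myc, and circular RNA barcodes were reverse transcribed, amplified and sequenced. Each barcode needed a proportion of at least 10^−7 in both replicates and each binder at least 3 barcodes per replicate, a pseudocount of 10^−6 was added, and the replicates were pooled.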
# Sequence of GABARAP, O95166 (O95166 whole entry, the tested form may be a part): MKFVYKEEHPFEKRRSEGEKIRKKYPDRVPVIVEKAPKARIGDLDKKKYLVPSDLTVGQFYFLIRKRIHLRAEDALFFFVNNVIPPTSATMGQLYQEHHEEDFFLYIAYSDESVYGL
row,Binder,median log2 fold change
1,B1,0.311
2,B2,0.153
3,B3,-0.0672
4,B4,0.204
5,B5,0.435
6,B6,0.0653
7,B7,0.19
8,B8,-0.158
9,B9,-0.0583
10,B10,-0.0639
11,B11,0.0201
12,B12,0.336
13,B13,0.201
14,B14,0.104
15,B15,-0.131
16,B16,-0.211
17,B17,0.193
18,B18,0.268
19,B19,0.149
